Assay results: the BET-seq Pho4 binding data (Le et al. 2018)
The other results are listed elsewhere or left out. The energies were worked out here from pooled read counts, against the library average; single values are noisy.

biological target: T1, Pho4 (S. cerevisiae) (UniProt P07270); test: relative binding free energy (BET-seq); higher = weaker binding; conditions: reference: library average
T1 sequence: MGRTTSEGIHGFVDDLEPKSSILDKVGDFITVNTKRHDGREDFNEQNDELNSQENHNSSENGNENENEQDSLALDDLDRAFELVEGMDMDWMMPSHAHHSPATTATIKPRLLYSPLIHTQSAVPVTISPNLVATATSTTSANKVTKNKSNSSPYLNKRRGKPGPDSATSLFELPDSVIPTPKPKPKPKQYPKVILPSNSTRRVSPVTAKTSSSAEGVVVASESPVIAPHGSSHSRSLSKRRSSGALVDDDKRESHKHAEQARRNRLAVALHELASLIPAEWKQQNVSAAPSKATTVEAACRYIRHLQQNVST

Sequence | relative binding free energy [kcal/mol]
TTCGGCACGTGATGGC | 0.02
AAGGGCACGTGTTAGT | -0.02
TAGGACACGTGGCGGA | -0.01
GTTTGCACGTGGGAGT | -0.1
GAGTTCACGTGGCATT | 0.27
TGGTGCACGTGGGCAT | -0.1
AATACCACGTGAGGGT | 0.2
GGATGCACGTGAAGTT | 0.4
GGCCGCACGTGTGAGG | 0.11
GAATTCACGTGGAGTT | 0.13
CGTTGCACGTGGGTAA | -0.03
GGTAGCACGTGGGAAG | 0.04
AAGAGCACGTGTGAGG | -0.11
ACTTACACGTGTTATG | 0.15
TATGGCACGTGTATAG | -0.04
AAGGACACGTGGTTAG | -0.15
GTACACACGTGAGGTG | 0.21
ATGAACACGTGAGTTG | 0.29
TTGTTCACGTGTCTGC | 0.11
GTCTTCACGTGTGTGC | 0.33
GTTTTCACGTGGGCTT | 0.27
TATTGCACGTGGAAAA | 0.05
TGGTGCACGTGAGGAT | 0.2

Sequence | relative binding free energy [kcal/mol]
AGTGACACGTGATTGT | 0.08
GGTCTCACGTGTCGTG | 0
AGTGTCACGTGTTGGG | 0.12
TTAGGCACGTGCGGTG | -0.22
ATGTCCACGTGTGGTT | 0.08
TGTATCACGTGGAGAT | 0.17
GATGACACGTGGCGTT | -0.03
TAATCCACGTGGAGTG | 0.01
TTCTACACGTGTGTGT | 0.2
TTTAGCACGTGTGCTG | -0.12
AGTTGCACGTGTCAAT | 0.04
GGGGACACGTGTAGAT | 0.16
GCGGACACGTGGGGGG | -0.08
TGTGTCACGTGGTGAA | -0.02
GGGCTCACGTGTGGGG | 0.41
GGAATCACGTGCGTGG | 0.15
AAAGTCACGTGAATGT | 0.37
GGCTGCACGTGTTAGA | 0.08
TTTAGCACGTGTCATA | -0.08
CCTATCACGTGGGGGT | 0
AGTTACACGTGAGCGG | 0.23
AAAGTCACGTGAGTGC | 0.32
TCGTGCACGTGTAAAG | 0.07

Sequence | relative binding free energy [kcal/mol]
AGGGACACGTGAGTGG | 0.22
TTACGCACGTGGTGTG | -0.29
CTAGTCACGTGGTGTA | -0.03
TGTTTCACGTGAACTA | 0.42
AGGATCACGTGAATGT | 0.39
TTTTCCACGTGGGAAG | 0.07
TTGCGCACGTGGTATA | -0.2
TTGCACACGTGGTATT | 0.04
TAGGACACGTGAGTGG | 0.16
TGGGACACGTGACGAG | 0.22
ATTTGCACGTGTAGTG | 0.14
TATGCCACGTGTTGGT | -0.12
AAAGTCACGTGGTAGT | 0.15
AGAAGCACGTGGGGCT | -0.36
CTGGGCACGTGTGATG | -0.02
GTGTACACGTGGAGGA | 0.02
TTTAGCACGTGGTTGG | -0.07
GATATCACGTGTGTGG | 0.15
GTCTACACGTGGTTTA | 0.12
TGTTTCACGTGTAGGA | 0.16
AGTTGCACGTGATTCT | 0.15
CGAGTCACGTGGGTAT | -0.13
TTTCTCACGTGGTCTT | 0.22

Sequence | relative binding free energy [kcal/mol]
AGGTTCACGTGTACAT | 0.27
GTTCGCACGTGGTGTT | -0.06
GGTATCACGTGTAAGA | 0.33
GGTTTCACGTGAGTAT | 0.47
TCTTTCACGTGGGCAG | 0.17
GTCTTCACGTGCGGTT | 0.23
GGGATCACGTGCGCGT | 0.02
AGATGCACGTGTAATT | 0.2
GTAGGCACGTGGGTAC | -0.25
AAGTTCACGTGAGGTA | 0.4
AAATGCACGTGTCGTG | 0.02
ATGAGCACGTGGGGGC | -0.27
GGAGGCACGTGGATTA | 0.06
AGTAGCACGTGCCGGG | -0.16
TGGGTCACGTGGATGC | 0.13
CTTGTCACGTGCGGGT | -0.01
AGTGCCACGTGGTAAG | -0.11
GCGTTCACGTGTACGG | 0.36
ATAGTCACGTGCTTAG | 0.08
TAGGTCACGTGCGTAG | 0.09
ATAGGCACGTGGATGA | -0.07
CAGAGCACGTGGGGCG | -0.34
TGGTCCACGTGATAGT | 0.08

Sequence | relative binding free energy [kcal/mol]
GATGGCACGTGACGGT | 0.14
GGTATCACGTGATTCT | 0.2
ACATTCACGTGTTTGG | 0.24
ATTTGCACGTGGCGTT | -0.02
TTCTTCACGTGTATTG | 0.19
GCAGGCACGTGTGGTA | 0.03
CTGTGCACGTGGTGTT | -0.14
TTGTTCACGTGCCGGG | 0.26
TAGGACACGTGAGATT | 0.18
TAGTGCACGTGCGGTC | -0.01
GCTTGCACGTGGATTG | 0.03
CGTTTCACGTGTAGTT | 0.33
GGAGGCACGTGAGTGA | 0.24
AGTTTCACGTGTTGCA | 0.4
TGTCACACGTGTAGGA | 0.09
GTTTCCACGTGGAGTT | 0.25
TTGGTCACGTGTCATG | 0.11
GTGGGCACGTGTTCTT | -0.07
ACAGTCACGTGGAGAG | 0.12
ATTTGCACGTGGGAAA | -0.02
ATCTGCACGTGGGAGT | 0
CTAGACACGTGAGGGG | 0.13
TTTGTCACGTGATCTT | 0.31
